The campaign covered roughly 110,000 compounds. About 230 (0.21%) showed an effect of 50% or more. The list shows a part of the results.
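Also: 30 min substrate incubation versus DMSO and 10 µM JCP410 controls.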

Sequence of DPAP1 (Q8IIJ9 whole entry, looked up): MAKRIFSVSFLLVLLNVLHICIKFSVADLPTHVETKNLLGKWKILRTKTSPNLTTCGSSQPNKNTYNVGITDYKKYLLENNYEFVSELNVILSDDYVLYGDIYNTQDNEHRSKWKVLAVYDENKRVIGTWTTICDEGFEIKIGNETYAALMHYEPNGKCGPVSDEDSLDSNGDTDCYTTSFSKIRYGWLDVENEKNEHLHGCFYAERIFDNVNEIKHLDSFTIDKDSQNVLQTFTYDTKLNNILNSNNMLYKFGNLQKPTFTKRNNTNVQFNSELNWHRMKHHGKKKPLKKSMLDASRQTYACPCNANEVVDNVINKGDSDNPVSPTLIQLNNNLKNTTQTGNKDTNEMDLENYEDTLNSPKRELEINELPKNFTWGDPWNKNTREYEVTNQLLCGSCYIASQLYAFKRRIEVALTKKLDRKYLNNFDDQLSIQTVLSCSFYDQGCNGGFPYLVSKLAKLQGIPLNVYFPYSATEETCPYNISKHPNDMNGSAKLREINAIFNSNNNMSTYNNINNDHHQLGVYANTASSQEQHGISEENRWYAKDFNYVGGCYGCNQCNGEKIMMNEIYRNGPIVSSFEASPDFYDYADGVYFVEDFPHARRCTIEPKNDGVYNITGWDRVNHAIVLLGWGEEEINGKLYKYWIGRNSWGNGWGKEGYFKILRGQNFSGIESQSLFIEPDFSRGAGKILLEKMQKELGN

This test has as its target DPAP1 (Plasmodium falciparum, UniProt Q8IIJ9). Briefly: primary screen, percent inhibition; read by cleavage of a fluorogenic dipeptide substrate; higher = more effect of the substance. On the set-up: species or system P. falciparum D10 trophozoite lysates; single well.
`Cc1c(C(=O)c2ccccc2)c2cc(O)ccc2n1-c1ccc(Br)cc1`: the “% Inhibition @ 10 uM” value is given as 6.66%.

In the case of `CCOC(=O)C1CCCN(CC2CC3C=CC2C3)C1` (stereo not drawn), the “% Inhibition @ 10 uM” value is -0.603%.

Take `CCN1CCCC1CNC(=O)C1CCN(c2nc3c(C)cc(C)cc3s2)CC1` (stereo not drawn): the “% Inhibition @ 10 uM” value was 0.137%.

In the case of `Cc1ccnc(Nc2nc3ccc(C)cc3n3cnnc23)c1`, the “% Inhibition @ 10 uM” value is listed as -6.07%.

Turning to `O=C1c2ccc3c4c(ccc(c24)C(=O)N1CCOCc1ccccc1)CC3`, the “% Inhibition @ 10 uM” value was -4.82%.

For the compound `CCOC(=O)c1cnc(SCc2cccc(C)c2)nc1N`, the “% Inhibition @ 10 uM” value turned out to be 4.99%.

As to `COc1cc2c(cc1OC)-c1c(OC)c(OC)cc3c1C(C2)N(C)CC3` (stereo not drawn), the “% Inhibition @ 10 uM” value is 3.34%.

For `COCCn1c(CN(C)Cc2ccccc2)nc2c1c(=O)n(C)c(=O)n2C`, the “% Inhibition @ 10 uM” value was -5.1%.

Consider `CNC(=O)c1c(NC(=O)c2ccccc2C)sc2c1CCCCC2`, for which the “% Inhibition @ 10 uM” value is on record as -2.13%.

As to `Cc1ccccc1/C=C1\N=C(c2ccco2)OC1=O`, the “% Inhibition @ 10 uM” value was 6.11%.

Take `NS(=O)(=O)c1ccc(NC(=O)c2ccccc2)cc1`: the “% Inhibition @ 10 uM” value came to 1.24%.

As to `O=C(Nc1nc(-c2ccccc2)cs1)c1ccco1`, the “% Inhibition @ 10 uM” value was -8.3%.

As for `CC1=C(C(=O)N2CCCCC2C)C2(CCCCCC2)OC1=O` (stereo not drawn), the “% Inhibition @ 10 uM” value is 2.01%.

On to `N#CCc1ccc(NC(=O)COc2cccc(Cl)c2Cl)cc1`, for which the “% Inhibition @ 10 uM” value is -2.67%.

On to `COc1ccc(-c2noc(CC3CCCCC3)n2)cc1OC`, for which the “% Inhibition @ 10 uM” value is -6.4%.

On to `CC1CCCCN1S(=O)(=O)c1csc(C(N)=O)c1` (stereo not drawn), for which the “% Inhibition @ 10 uM” value is on record as -0.822%.

With `Cc1ccccc1/C=C1\CN(C)C/C(=C\c2ccccc2C)C1=O`, the “% Inhibition @ 10 uM” value worked out at 8.24%.

`O=C(NC12CC3CC(CC(C3)C1)C2)c1ccccc1O`: the “% Inhibition @ 10 uM” value is 6.68%.

Turning to `O=C(CN1CCOCC1)N1c2ccccc2CCc2ccccc21`, the “% Inhibition @ 10 uM” value is given as -3.92%.

Take `Cc1cc[n+](CC(=O)N2CCCCC2)cc1`: the “% Inhibition @ 10 uM” value was found to be 3.72%.

For the compound `CCOc1cccc(CN2C[C@@H]3C[C@H](C2)c2cccc(=O)n2C3)c1O`, the “% Inhibition @ 10 uM” value is -0.13%.

Consider `CC(C(=O)Nc1ccccc1C#N)N1C(=O)c2ccccc2C1=O` (stereo not drawn), for which the “% Inhibition @ 10 uM” value was -6.22%.

`CC1CCCCN1CCNc1ccc2nnc(-c3ccc(F)cc3)n2n1` (stereo not drawn): the “% Inhibition @ 10 uM” value was found to be 3.45%.

For `Cc1cc2nc(COc3ccc(C(C)(C)C)cc3)cc(=O)n2o1`, the “% Inhibition @ 10 uM” value amounted to 4.28%.

Regarding `CN(Cc1ccccc1)S(=O)(=O)c1ccc2c(c1)OCCO2`, the “% Inhibition @ 10 uM” value was -2.17%.

Turning to `COc1c(Cl)cnn(-c2ccc(Cl)c(C(F)(F)F)c2)c1=O`, the “% Inhibition @ 10 uM” value is listed as -0.636%.

Consider `CCN(C(=O)COc1ccc(Br)cc1)c1ccccc1`, for which the “% Inhibition @ 10 uM” value worked out at 0.795%.

On to `Cc1ccc(-c2cc(C(=O)NCc3ccc4c(c3)OCO4)c3ccccc3n2)s1`, for which the “% Inhibition @ 10 uM” value is on record as -1.1%.

For `CCN(CC)CCNC(=O)c1cc(OC)c(OC)c(OC)c1`, the “% Inhibition @ 10 uM” value is listed as -2.6%.

Consider `CCOC(=O)c1cnc(SCC(=O)c2ccccc2)nc1N`, for which the “% Inhibition @ 10 uM” value is listed as -3.52%.

Values taken from PMC6919601, “Identification of Plasmodium dipeptidyl aminopeptidase allosteric inhibitors by high throughput screening” (PLoS ONE, 2019).
